The list shows a part of the results. The main result of the screen is listed elsewhere. These columns were measured beside it and carry no call.

Experimental findings from PubChem BioAssay AID1745853 (National Center for Advancing Translational Sciences (NCATS), 2022) are described below.

Assay in all cases: Primary Screen for Target Class Profiling of Small Molecule Inhibitors of Methyltransferases
Test [1] concerns the target Glycine N-methyltransferase (Homo sapiens) (UniProt Q14749). As to conditions: purified enzyme, MTase-Glo SAH luminescence; measured here: GNMT inhibition; at 40 µM; stronger effect = lower value. Summed up: (§1)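 Each enzyme was reacted with SAM and its substrate, with compounds tested once at 40 uM; SAH formed was read by MTase-Glo luminescence.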
Test [2] deals with Guanidinoacetate N-methyltransferase (Homo sapiens) (UniProt Q14353). As to conditions: purified enzyme, MTase-Glo SAH luminescence; measured here: GAMT inhibition; at 40 µM; stronger effect = lower value. Put shortly:
as §1

For test [3], the target named is Histamine N-methyltransferase (Homo sapiens) (UniProt P50135). As to conditions: purified enzyme, MTase-Glo SAH luminescence; measured here: HNMT inhibition; at 40 µM; stronger effect = lower value. Summed up:
as §1

The target of test [4] is Nicotinamide N-methyltransferase (Homo sapiens) (UniProt P40261). The note with it: purified enzyme, MTase-Glo SAH luminescence; measured here: NNMT inhibition; at 40 µM; stronger effect = lower value. Put shortly: as §1
Test [5] addresses Phenylethanolamine N-methyltransferase (Homo sapiens) (UniProt P11086). The note with it: purified enzyme, MTase-Glo SAH luminescence; measured here: PNMT inhibition; at 40 µM; stronger effect = lower value. Summed up: as §1
On the % scale 0 is the no-effect control and ±100 the full control effect.

With `COc1ccc(OC)c2c1cc1n2CC(C)(C(=O)NC2CCC(C)CC2)N(Cc2ccco2)C1=O` (stereo unspecified), the activity change, negative = inhibition in test [1] was -0.252%; in test [2], 0%; in test [3], 3.5%; in test [4] it was -0.055%; in test [5] it was 1.46%.

As for `CCCC1c2cccn2CCN1C(=O)Nc1ccc(Br)cc1` (stereo unspecified), the activity change, negative = inhibition in test [1] was -7.42%; in test [2], 4.64%; in test [3] it was -30.7%; in test [4], -8.02%; in test [5], -0.935%.

Consider `CCOC(=O)c1cc2n(n1)CC(C)(C(=O)NC1CCCCC1)N(c1ccccc1OC)C2=O` (stereo unspecified), for which the activity change, negative = inhibition in test [1] is 0.229%; in test [2] it was 3.11%; in test [3], -3.53%; in test [4] it was -1.79%; in test [5], -0.596%.

Consider `CN1C(=O)c2cc(C(=O)NCc3ccco3)nn2CC1(C)C(=O)NCc1ccc(F)cc1` (stereo unspecified), for which the activity change, negative = inhibition in test [1] stood at 9.06%; in test [2], 1.41%; in test [3], 8.8%; in test [4], 14.1%; in test [5] it was 7.36%.

As for `CCC(CO)Nc1nc(NCc2ccccc2)c2ncn(C(C)C)c2n1` (stereo unspecified), the activity change, negative = inhibition in test [1] is 6.3%; in test [2], 12.5%; in test [3], 16%; in test [4], -11.8%; in test [5], -0.36%.

`CC1CCN(S(=O)(=O)c2ccc3c(ccn3CC(=O)NCCCc3ccccc3)c2)CC1`: the activity change, negative = inhibition is 5.08% in test [1]; 0% in test [2]; 3.78% in test [3]; 5.11% in test [4]; 2.38% in test [5].

In the case of `O=C(NCc1ccccc1)c1ccccc1OC1CN(C2CCC2)C1`, the activity change, negative = inhibition in test [1] is -3.28%; in test [2], 0.958%; in test [3], -15.8%; in test [4] it was -7.69%; in test [5] it was -3.97%.

Turning to `CC(C)(C)OCC1CN(Cc2cccs2)[S+](=O)([O-])c2cccnc2O1` (stereo unspecified), the activity change, negative = inhibition in test [1] was -6.28%; in test [2] it was -5.48%; in test [3], -3.02%; in test [4], -13.8%; in test [5] it was -1.48%.

As for `O=C1c2cc3sccc3n2CC(C(=O)NC2CCCCCC2)(c2ccccc2)N1Cc1cccc(F)c1` (stereo unspecified), the activity change, negative = inhibition is 3.66% in test [1]; 0% in test [2]; 0.854% in test [3]; 3.94% in test [4]; -1.88% in test [5].

Consider `COC(=O)[C@H](Cc1ccc(OC)cc1)NC(=O)[C@H]1CN(C(=O)c2ccc(N(C)C)cc2)CCN1C(=O)c1cccs1`, for which the activity change, negative = inhibition in test [1] was -7.34%; in test [2], -5.89%; in test [3] it was -4.7%; in test [4], -12.5%; in test [5], -9.55%.

As to `COc1ncccc1-c1nc(-c2c(C)noc2C)cc2c1cc(C)n2CCN(C)C`, the activity change, negative = inhibition in test [1] was -4.17%; in test [2], 2.36%; in test [3] it was -17.5%; in test [4] it was -13%; in test [5] it was 8.42%.

For `COCCn1nc2n(c1=O)CCN(Cc1ccc(Br)o1)CC2`, the activity change, negative = inhibition was -4.78% in test [1]; -2.07% in test [2]; -1.06% in test [3]; -14.7% in test [4]; -9.72% in test [5].

As for `COC(=O)c1ncn2c1C(=O)N(Cc1ccc(OC)c(OC)c1)C(C)(C(=O)NC1CCCCCC1)C2` (stereo unspecified), the activity change, negative = inhibition in test [1] was 1.38%; in test [2], 0%; in test [3], 2.82%; in test [4], -10.8%; in test [5] it was 2.59%.

`C#CC[C@H](c1nc2cc(Cl)ccc2c(=O)n1Nc1ccccc1)N(CCCN)C(=O)c1cccc(Cl)c1F`: the activity change, negative = inhibition in test [1] was 1.55%; in test [2], -9.61%; in test [3] it was 4.32%; in test [4], -34.4%; in test [5] it was -8.32%.

Consider `C/C(=C\C(=O)C(C)C1CCC2C3=C(CCC21C)C1(C)CCC(=O)C(C)(C)C1(O)CC3)C(C)(C)O` (stereo unspecified), for which the activity change, negative = inhibition was 1.32% in test [1]; 6.22% in test [2]; 9.8% in test [3]; -9.04% in test [4]; -4.17% in test [5].

For the compound `Cc1nnc2n(-c3cccc(F)c3)c(=O)c3ccc(C(=O)NCc4ccc(Cl)cc4)cc3n12`, the activity change, negative = inhibition in test [1] was -4.6%; in test [2] it was 4.49%; in test [3] it was -0.696%; in test [4], 4.23%; in test [5] it was -5.43%.

As for `CC(C)OCCCNC(=O)c1cc(-c2cccc(C(F)(F)F)c2)c2cccn2n1`, the activity change, negative = inhibition in test [1] is -6.5%; in test [2], -0.489%; in test [3], -0.674%; in test [4], -4.69%; in test [5], 0.188%.

As for `CC(/C=C/C1(O)C(C)(C)CC(O)CC1(C)O)OC1OC(CO)C(O)C(O)C1O` (stereo unspecified), the activity change, negative = inhibition was 3.22% in test [1]; 6.43% in test [2]; 5.98% in test [3]; -5.54% in test [4]; 7.58% in test [5].

With `CCCCNC(=O)c1cc2n(n1)CC(C)(C(=O)NCCC(C)C)N(C)C2=O` (stereo unspecified), the activity change, negative = inhibition worked out at 8.83% in test [1]; 1.48% in test [2]; 10% in test [3]; 11.3% in test [4]; 9.62% in test [5].

As for `C[C@@H]1CCN(C(=O)CC#N)C[C@@H]1N(C)c1ncnc2[nH]ccc12`, the activity change, negative = inhibition was 0.142% in test [2], -21.4% in test [4] and -6.77% in test [5].

For the compound `CCCCCC1CC1CC1CC1CCCCCCCC(=O)O` (stereo unspecified), the activity change, negative = inhibition was -0.907% in test [2], -31.8% in test [4] and 2.03% in test [5].

In the case of `COc1ccc(OC)c(S(=O)(=O)N2CCCC(Cn3c(C)cnc3C3CC3)C2)c1` (stereo unspecified), the activity change, negative = inhibition is -3.19% in test [1]; 0% in test [2]; -0.468% in test [3]; -5.31% in test [4]; 1.2% in test [5].

Consider `CCC(C)NC(=O)c1ccc2c(=O)n(C(C)C)c3nn(CC(=O)Nc4ccc(C)c(F)c4)c(=O)n3c2c1` (stereo unspecified), for which the activity change, negative = inhibition in test [1] was 4.23%; in test [2], 0%; in test [3], 1.39%; in test [4], 2.32%; in test [5], 3.82%.

In the case of `COc1cc(/C=C/C(=O)OC2CC3CCC2(C)C3(C)C)ccc1O` (stereo unspecified), the activity change, negative = inhibition in test [1] was 0.976%; in test [2] it was 6.63%; in test [3] it was 9.79%; in test [4] it was -13.1%; in test [5], -3.23%.

Turning to `COC1C2=C(COC2=O)C2(C)CCCC(C)(CO)C2C1OC(=O)c1ccccc1` (stereo unspecified), the activity change, negative = inhibition in test [1] was 2.5%; in test [2] it was 2.04%; in test [3], 8.06%; in test [4], -8.46%; in test [5], 2.5%.

For the compound `COc1ccc(NC(=O)c2ccc3c(c2)OCC(=O)N(C)C3)c(F)c1`, the activity change, negative = inhibition is -4.86% in test [1]; -4.03% in test [2]; 0.864% in test [3]; -7.31% in test [4]; -4.35% in test [5].

For `Cc1ccc(N2CCN(S(=O)(=O)c3cc4c(cc3C)n(C)c(=O)n4C)CC2)c(C)c1`, the activity change, negative = inhibition in test [1] was -6.13%; in test [2] it was 0.675%; in test [3], -8.6%; in test [4], -12.2%; in test [5], -12%.

As to `COc1ccccc1OCCNC(=O)C(C)C1CCOCC1` (stereo unspecified), the activity change, negative = inhibition was 1.06% in test [1]; -3.21% in test [2]; 4.33% in test [3]; 0.441% in test [4]; -7.59% in test [5].

Consider `CCC/C=C\C=C/CCc1cc(O)c([C@@H]2O[C@H](CO)[C@@H](O)[C@H](O)[C@H]2O)c(O)c1C(=O)OC`, for which the activity change, negative = inhibition is -2.31% in test [1]; 0.417% in test [2]; 7.16% in test [3]; -17.6% in test [4]; -11% in test [5].

Turning to `C=CCN1C(=O)c2ccc(-c3ccco3)n2CC1(C)C(=O)NCc1ccc(Cl)cc1` (stereo unspecified), the activity change, negative = inhibition is -5.94% in test [1]; -13.8% in test [2]; 5.85% in test [3]; -6.19% in test [4]; -4.97% in test [5].

For `Cc1ccc(C(=O)N2CCc3sc(C(=O)NCc4cc(F)cc(F)c4)cc3C2)cc1`, the activity change, negative = inhibition in test [1] was -8.5%; in test [2] it was -10.9%; in test [3] it was -19.2%; in test [4], -17.9%; in test [5] it was -13.6%.
